According to the supplement of paper PMC12217912:
The other results are listed elsewhere or left out. Sequences were assembled here from the parent chain. Inactive controls read about 0.05.

B1: TEV protease; numbered along this chain (parent)
chain: MGESLFKGPRDYNPISSSICHLTNESDGHTTSLYGIGFGPFIITNKHLFRRNNGTLVVQSLHGVFKVKDTTTLQQHLVDGRDMIIIRMPKDFPPFPQKLKFREPQREERICLVTTNFQTKSMSSMVSDTSCTFPSGDGIFWKHWIQTKDGQCGSPLVSTRDGFIVGIHSASNFTNTNNYFTSVPKNFMELLTNQEAQQWVSGWRLNADSVLWGGHKVFMVKPEEPFQPVKEATQL

Variants of: B1
Test: raw area under fraction-flipped curve 0-4 h after induction (AUC4h, not background-subtracted), DNA-recorder readout of cleavage of the substrate (dimensionless); higher = more cleavage of the substrate by the protease variant
Details: temperature: 34 °C; time window: 0-4 h after rhamnose induction
Experimental: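 In vivo DNA recorder in E. coli TOP10(DE3) ΔrhaA at 34 °C. Each TEVp single-site mutant (parent TEVp 0) is paired with a single-site variant of the 7-mer TEVs (canonical ENLYFQ|S). The substrate sits between flexible linkers in a Bxb1-sfGFP-TEVs-SsrA fusion, so cleavage stabilises Bxb1 and speeds flipping of a recombination array, read by NGS. The value is the raw area under the fraction-flipped curve over 0-4 h after rhamnose induction (AUC4h), with ≥20 reads per time point. It is not background-subtracted; inactive controls average about 0.047.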
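Also: Bxb1 expression induced with 0.2% (w/v) L-rhamnose at OD600 near 0.5, cultures sampled hourly, flipped fraction per protease–substrate barcode pair counted by paired-end Illumina sequencing.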

| Variant | area with substrate ENLYFAS | area with substrate ENLYFES | area with substrate ENLYFFS | area with substrate ENLYFHS | area with substrate ENLYFIS | area with substrate ENLYFKS | area with substrate ENLYFLS | area with substrate ENLYFMS | area with substrate ENLYFNS | area with substrate ENLYFPS | area with substrate ENLYFVS | area with substrate ENLYFWS | area with substrate ENLYFCS | area with substrate ENLYFDS | area with substrate ENLYFGS | area with substrate ENLYFRS | area with substrate ENLYFTS | area with substrate ENLYFYS | area with substrate ENLYFSS |
| --- | --- | --- | --- | --- | --- | --- | --- | --- | --- | --- | --- | --- | --- | --- | --- | --- | --- | --- | --- |
| K221S | 0.0573 | 0.0538 | 0.0767 | 0.0616 | 0.0556 | 0.0558 | 0.0649 | 0.0459 | 0.0609 | 0.0545 | 0.0645 | 0.0941 | – | – | – | – | – | – | – |
| P222I | 0.0611 | 0.0748 | 0.0608 | – | 0.0544 | 0.0614 | 0.0774 | – | 0.0605 | 0.0844 | 0.0654 | 0.0386 | 0.0559 | 0.073 | 0.0525 | 0.0401 | 0.0551 | 0.0287 | – |
| E223N | 0.0598 | 0.0688 | 0.0772 | – | 0.0561 | 0.0525 | 0.0669 | 0.0619 | 0.0391 | 0.0596 | – | 0.0471 | 0.0621 | 0.0115 | – | 0.0472 | – | – | 0.0659 |
| E223Y | 0.0637 | 0.0672 | 0.0673 | 0.0578 | 0.0581 | 0.0646 | – | 0.0476 | 0.0728 | 0.0534 | – | 0.063 | 0.0556 | 0.0156 | – | – | 0.0606 | – | 0.0479 |
| P225C | 0.0672 | 0.0618 | 0.0745 | 0.0619 | – | – | 0.0598 | 0.0609 | 0.0857 | 0.0602 | 0.0695 | – | 0.0602 | 0.0633 | – | 0.0673 | 0.0597 | 0.068 | – |
| P225K | 0.0526 | – | 0.073 | – | 0.0534 | 0.0634 | – | – | 0.0861 | 0.0671 | – | – | 0.0526 | 0.0892 | 0.0576 | 0.0645 | 0.0677 | – | – |
| F226E | 0.0574 | 0.0696 | 0.0556 | 0.0625 | 0.0532 | 0.0477 | – | 0.0535 | 0.0701 | 0.0511 | – | 0.0486 | 0.0691 | 0.0448 | 0.0518 | 0.0837 | 0.0683 | 0.0507 | 0.0714 |
| F226G | 0.0475 | 0.0738 | – | – | 0.0571 | 0.0531 | 0.0572 | 0.0684 | 0.0795 | 0.057 | 0.0647 | 0.0626 | – | 0.0543 | 0.054 | 0.0747 | 0.0481 | 0.0596 | 0.058 |
| F226Q | 0.0585 | 0.0738 | 0.0565 | 0.0401 | 0.064 | 0.0565 | 0.0532 | 0.0697 | – | – | 0.0627 | 0.0631 | – | 0.0731 | 0.0555 | – | – | 0.0355 | – |
| V229E | 0.0581 | 0.0441 | 0.0471 | 0.0736 | 0.0547 | 0.049 | 0.074 | 0.0685 | 0.0628 | 0.0536 | 0.0527 | 0.0523 | – | 0.0636 | – | 0.052 | 0.0615 | 0.0579 | – |
| T233M | 0.0502 | 0.0532 | 0.0636 | 0.0607 | 0.0508 | 0.0495 | 0.0625 | 0.0699 | 0.0612 | 0.0604 | 0.073 | – | 0.0699 | – | – | 0.0624 | 0.0607 | 0.057 | – |
| T233Q | 0.0714 | 0.0464 | 0.0678 | – | 0.0475 | – | – | – | 0.0718 | 0.0647 | 0.0595 | 0.0724 | – | – | 0.0447 | – | – | – | – |
| Q234S | 0.0577 | 0.0549 | 0.0799 | 0.0468 | 0.0589 | – | – | 0.0702 | 0.0675 | 0.0654 | 0.0622 | 0.0582 | 0.0521 | – | – | 0.0597 | 0.0542 | 0.0583 | – |
| Q234T | 0.0407 | 0.0631 | 0.0673 | 0.0713 | 0.0544 | 0.0714 | 0.0684 | 0.0725 | – | 0.0533 | – | 0.0598 | – | 0.0514 | – | 0.0649 | – | 0.0626 | 0.0693 |
| Q234V | 0.0578 | 0.0546 | – | 0.0572 | 0.0542 | 0.0678 | 0.0643 | 0.0595 | 0.066 | 0.0404 | 0.0896 | 0.0619 | 0.0511 | 0.0549 | – | 0.0486 | 0.0577 | – | – |
| L235Q | 0.0654 | 0.0629 | 0.0801 | – | 0.0544 | – | 0.0524 | 0.0715 | 0.0674 | 0.0485 | 0.0607 | – | 0.0543 | – | – | 0.0635 | 0.055 | – | – |
| S4I | – | 0.056 | 0.0641 | 0.0689 | – | 0.0562 | – | 0.0819 | 0.0623 | 0.0731 | – | 0.0539 | 0.0706 | 0.0405 | 0.0477 | 0.0604 | 0.0614 | 0.0411 | 0.0709 |
| S4Y | – | 0.0787 | 0.0581 | – | 0.044 | 0.0666 | 0.0554 | 0.0538 | 0.0778 | – | 0.0925 | – | 0.056 | – | – | 0.0432 | 0.0479 | – | – |
| Y12N | – | 0.0678 | 0.0811 | – | 0.0576 | 0.0851 | – | 0.0673 | 0.0608 | 0.0806 | 0.0429 | 0.0427 | 0.0577 | – | – | – | – | 0.0533 | – |
| N13F | – | 0.0568 | 0.0632 | 0.0564 | 0.0555 | 0.0771 | 0.0623 | 0.0627 | 0.0629 | 0.0512 | 0.0582 | 0.0753 | 0.0628 | 0.061 | – | 0.0507 | 0.0555 | 0.0591 | – |
| I15M | – | – | 0.082 | – | 0.0573 | – | – | 0.0569 | – | 0.0869 | – | – | 0.0569 | – | – | 0.0715 | 0.0608 | 0.0648 | – |
| I19W | – | 0.0516 | 0.0777 | 0.0412 | – | – | – | 0.0521 | – | 0.0498 | – | 0.0408 | 0.0536 | – | 0.0461 | – | 0.0417 | 0.0385 | – |
| L22H | – | 0.0439 | 0.0435 | 0.0398 | 0.0524 | 0.0442 | 0.0417 | 0.0465 | 0.0622 | 0.0488 | 0.0683 | 0.0421 | 0.0378 | 0.0581 | 0.06 | 0.0387 | 0.0365 | 0.0592 | 0.0513 |
| L22S | – | 0.0681 | 0.0527 | 0.0448 | 0.0422 | 0.047 | 0.0438 | 0.0496 | 0.0464 | 0.0486 | – | – | 0.0399 | 0.0432 | 0.0593 | 0.0508 | 0.0444 | 0.0647 | 0.0495 |
| L22Y | – | 0.0567 | 0.0558 | 0.0269 | 0.0521 | 0.0533 | – | 0.0483 | 0.0594 | 0.0512 | 0.0527 | 0.0501 | 0.05 | 0.0884 | 0.0318 | 0.0468 | 0.0461 | 0.0428 | – |
